Test results reported in paper PMC10217940.
No constants are given. Whether binding was seen depends on the method and setting. For some assays here: In cells and extracts the contact can be indirect. Some results given as binding are weak or reduced against the parent protein; the word gives no strength. Tags and fused reporters may be left off the sequences shown.

The chains behind the UniProt entries cited, without tags or fusion partners.
UniProt O04294: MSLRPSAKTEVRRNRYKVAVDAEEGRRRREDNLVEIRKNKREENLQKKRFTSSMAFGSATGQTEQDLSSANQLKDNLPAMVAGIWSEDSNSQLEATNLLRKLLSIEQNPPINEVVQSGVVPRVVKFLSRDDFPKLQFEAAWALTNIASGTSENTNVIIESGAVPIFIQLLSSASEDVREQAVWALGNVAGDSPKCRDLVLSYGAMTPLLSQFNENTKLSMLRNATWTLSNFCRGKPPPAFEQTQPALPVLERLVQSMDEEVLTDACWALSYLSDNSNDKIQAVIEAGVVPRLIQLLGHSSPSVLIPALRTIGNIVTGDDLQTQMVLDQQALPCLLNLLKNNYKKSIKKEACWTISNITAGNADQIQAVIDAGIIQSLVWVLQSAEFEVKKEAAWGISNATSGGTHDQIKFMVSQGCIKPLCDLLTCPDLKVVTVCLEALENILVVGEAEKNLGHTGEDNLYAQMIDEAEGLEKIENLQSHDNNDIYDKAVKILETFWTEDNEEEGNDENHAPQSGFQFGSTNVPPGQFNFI

T1: IMPα5, yeast two-hybrid fusion (Arabidopsis) (UniProt Q9FJ09)
T1 sequence: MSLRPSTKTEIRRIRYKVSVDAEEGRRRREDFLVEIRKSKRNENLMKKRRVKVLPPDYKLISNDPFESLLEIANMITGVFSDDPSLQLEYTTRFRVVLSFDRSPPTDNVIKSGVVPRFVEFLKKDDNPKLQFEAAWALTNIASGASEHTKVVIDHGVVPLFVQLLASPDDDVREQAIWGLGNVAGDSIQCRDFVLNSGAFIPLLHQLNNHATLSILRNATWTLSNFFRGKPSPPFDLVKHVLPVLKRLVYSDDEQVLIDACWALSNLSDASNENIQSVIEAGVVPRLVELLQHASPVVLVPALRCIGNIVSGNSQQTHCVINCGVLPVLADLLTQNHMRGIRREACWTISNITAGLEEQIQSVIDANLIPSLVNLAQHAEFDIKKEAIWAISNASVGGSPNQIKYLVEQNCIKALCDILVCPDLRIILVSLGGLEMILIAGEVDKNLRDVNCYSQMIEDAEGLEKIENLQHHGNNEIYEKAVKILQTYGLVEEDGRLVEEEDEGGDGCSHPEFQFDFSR

T2: Importin β1 (IMPβ1), yeast two-hybrid fusion (Arabidopsis) (UniProt Q9FJD4)
T2 sequence: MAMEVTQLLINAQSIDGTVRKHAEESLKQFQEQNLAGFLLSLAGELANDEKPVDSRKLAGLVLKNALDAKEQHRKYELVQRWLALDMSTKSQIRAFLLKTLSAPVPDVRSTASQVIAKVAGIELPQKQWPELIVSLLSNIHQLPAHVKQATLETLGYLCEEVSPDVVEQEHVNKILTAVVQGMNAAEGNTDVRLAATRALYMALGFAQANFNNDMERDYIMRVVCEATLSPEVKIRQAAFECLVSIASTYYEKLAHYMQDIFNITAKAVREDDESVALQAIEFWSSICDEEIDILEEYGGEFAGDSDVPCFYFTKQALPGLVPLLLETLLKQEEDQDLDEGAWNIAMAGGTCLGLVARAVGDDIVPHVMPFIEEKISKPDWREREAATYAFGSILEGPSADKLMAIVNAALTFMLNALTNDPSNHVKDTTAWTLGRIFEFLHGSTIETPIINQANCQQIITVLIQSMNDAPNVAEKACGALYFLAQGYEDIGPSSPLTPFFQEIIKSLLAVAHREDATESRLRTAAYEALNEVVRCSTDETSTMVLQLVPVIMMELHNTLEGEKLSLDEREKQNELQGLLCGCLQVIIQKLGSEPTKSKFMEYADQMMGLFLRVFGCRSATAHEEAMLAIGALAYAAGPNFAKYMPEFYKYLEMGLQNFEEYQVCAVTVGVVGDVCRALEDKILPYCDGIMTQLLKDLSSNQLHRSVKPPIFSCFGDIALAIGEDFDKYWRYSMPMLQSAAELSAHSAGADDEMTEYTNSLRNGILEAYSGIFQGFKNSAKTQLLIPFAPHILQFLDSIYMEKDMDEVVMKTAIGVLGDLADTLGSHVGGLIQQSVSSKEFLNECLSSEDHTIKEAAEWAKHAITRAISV

T3: IMPα7, yeast two-hybrid fusion (Arabidopsis) (UniProt Q9M9X7)
T3 sequence: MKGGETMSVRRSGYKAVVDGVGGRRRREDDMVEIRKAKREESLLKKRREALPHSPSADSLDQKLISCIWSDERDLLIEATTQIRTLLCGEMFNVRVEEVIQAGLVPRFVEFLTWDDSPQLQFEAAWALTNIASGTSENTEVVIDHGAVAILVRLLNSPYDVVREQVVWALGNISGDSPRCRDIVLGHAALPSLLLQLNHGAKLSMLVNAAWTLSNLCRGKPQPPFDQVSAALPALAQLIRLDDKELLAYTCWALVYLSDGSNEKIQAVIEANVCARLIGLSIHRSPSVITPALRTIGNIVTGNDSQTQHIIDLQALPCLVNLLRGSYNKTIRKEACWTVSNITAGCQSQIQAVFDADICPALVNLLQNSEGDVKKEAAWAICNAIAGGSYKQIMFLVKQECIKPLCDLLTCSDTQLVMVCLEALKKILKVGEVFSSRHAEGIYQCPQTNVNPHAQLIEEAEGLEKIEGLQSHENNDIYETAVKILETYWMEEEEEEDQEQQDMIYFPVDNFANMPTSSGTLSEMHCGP

T4: IMPβ1:YFP^N fusion protein (Arabidopsis) (UniProt Q9FJD4)
T4 sequence: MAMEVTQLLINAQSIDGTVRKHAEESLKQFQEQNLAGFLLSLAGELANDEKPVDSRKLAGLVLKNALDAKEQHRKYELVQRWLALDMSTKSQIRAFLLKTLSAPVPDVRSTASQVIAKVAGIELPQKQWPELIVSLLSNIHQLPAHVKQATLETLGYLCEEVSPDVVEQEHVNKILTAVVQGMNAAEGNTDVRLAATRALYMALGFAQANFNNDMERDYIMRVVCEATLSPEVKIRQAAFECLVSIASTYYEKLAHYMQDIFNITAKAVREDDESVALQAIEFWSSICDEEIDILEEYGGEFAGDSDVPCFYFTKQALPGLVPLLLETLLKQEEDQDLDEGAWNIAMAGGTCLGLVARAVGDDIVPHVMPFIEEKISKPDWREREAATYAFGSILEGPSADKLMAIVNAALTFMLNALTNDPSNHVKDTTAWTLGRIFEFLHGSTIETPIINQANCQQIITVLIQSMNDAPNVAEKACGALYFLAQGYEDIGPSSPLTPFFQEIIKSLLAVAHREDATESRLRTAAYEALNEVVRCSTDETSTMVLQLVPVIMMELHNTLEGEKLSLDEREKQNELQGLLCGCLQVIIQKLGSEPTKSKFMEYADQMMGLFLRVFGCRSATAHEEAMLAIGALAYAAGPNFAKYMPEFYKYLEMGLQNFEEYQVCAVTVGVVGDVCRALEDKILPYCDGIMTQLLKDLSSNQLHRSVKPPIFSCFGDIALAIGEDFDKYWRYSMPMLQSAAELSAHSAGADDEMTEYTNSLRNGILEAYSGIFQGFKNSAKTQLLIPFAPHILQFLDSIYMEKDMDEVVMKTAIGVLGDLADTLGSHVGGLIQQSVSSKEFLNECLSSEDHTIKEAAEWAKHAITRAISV


How the values were obtained:
[1] = molecular target: T1, IMPα5, yeast two-hybrid fusion (Arabidopsis); test: two-hybrid; split-ubiquitin-based yeast two-hybrid (SUB-Y2H, Dualsystems); IMPs in the pGADT7 bait vector, EIN2C in the pGBKT7 prey vector
[2] = molecular target: T2, Importin β1 (IMPβ1), yeast two-hybrid fusion (Arabidopsis); test: as above
[3] = molecular target: T3, IMPα7, yeast two-hybrid fusion (Arabidopsis); test: as above
[4] = molecular target: IMPα3, yeast two-hybrid fusion (Arabidopsis) (UniProt O04294); test: as above
[5] = molecular target: T4, IMPβ1:YFP^N fusion protein (Arabidopsis); test: split reporter; YFP BiFC in Nicotiana benthamiana leaves, confocal laser-scanning microscopy; IMPβ1 fused to YFP^N, EIN2C or EIN2N fused to YFP^C

| binding [1] | binding [2] | binding [3] | binding [4] | binding [5] | Binder |
| --- | --- | --- | --- | --- | --- |
| no binding | binds | no binding | no binding |  | EIN2C (EIN2^454–1294), yeast two-hybrid fusion (domain or fragment, UniProt Q9S814 454-1294) LWLAATPLKSASNRAEAQIWNMDAQNALSYPSVQEEEIERTETRRNEDESIVRLESRVKDQLDTTSVTSSVYDLPENILMTDQEIRSSPPEERELDVKYSTSQVSSLKEDSDVKEQSVLQSTVVNEVSDKDLIVETKMAKIEPMSPVEKIVSMENNSKFIEKDVEGVSWETEEATKAAPTSNFTVGSDGPPSFRSLSGEGGSGTGSLSRLQGLGRAARRHLSAILDEFWGHLYDFHGQLVAEARAKKLDQLFGTDQKSASSMKADSFGKDISSGYCMSPTAKGMDSQMTSSLYDSLKQQRTPGSIDSLYGLQRGSSPSPLVNRMQMLGAYGNTTNNNNAYELSERRYSSLRAPSSSEGWEHQQPATVHGYQMKSYVDNLAKERLEALQSRGEIPTSRSMALGTLSYTQQLALALKQKSQNGLTPGPAPGFENFAGSRSISRQSERSYYGVPSSGNTDTVGAAVANEKKYSSMPDISGLSMSARNMHLPNNKSGYWDPSSGGGGYGASYGRLSNESSLYSNLGSRVGVPSTYDDISQSRGGYRDAYSLPQSATTGTGSLWSRQPFEQFGVAERNGAVGEELRNRSNPINIDNNASSNVDAEAKLLQSFRHCILKLIKLEGSEWLFGQSDGVDEELIDRVAAREKFIYEAEAREINQVGHMGEPLISSVPNCGDGCVWRADLIVSFGVWCIHRVLDLSLMESRPELWGKYTYVLNRLQGVIDPAFSKLRTPMTPCFCLQIPASHQRASPTSANGMLPPAAKPAKGKCTTAVTLLDLIKDVEMAISCRKGRTGTAAGDVAFPKGKENLASVLKRYKRRLSNKPVGMNQDGPGSRKNVTAYGSLG |
|  |  |  |  | binds | EIN2C:YFP^C fusion protein (domain or fragment, UniProt Q9S814 454-1294) LWLAATPLKSASNRAEAQIWNMDAQNALSYPSVQEEEIERTETRRNEDESIVRLESRVKDQLDTTSVTSSVYDLPENILMTDQEIRSSPPEERELDVKYSTSQVSSLKEDSDVKEQSVLQSTVVNEVSDKDLIVETKMAKIEPMSPVEKIVSMENNSKFIEKDVEGVSWETEEATKAAPTSNFTVGSDGPPSFRSLSGEGGSGTGSLSRLQGLGRAARRHLSAILDEFWGHLYDFHGQLVAEARAKKLDQLFGTDQKSASSMKADSFGKDISSGYCMSPTAKGMDSQMTSSLYDSLKQQRTPGSIDSLYGLQRGSSPSPLVNRMQMLGAYGNTTNNNNAYELSERRYSSLRAPSSSEGWEHQQPATVHGYQMKSYVDNLAKERLEALQSRGEIPTSRSMALGTLSYTQQLALALKQKSQNGLTPGPAPGFENFAGSRSISRQSERSYYGVPSSGNTDTVGAAVANEKKYSSMPDISGLSMSARNMHLPNNKSGYWDPSSGGGGYGASYGRLSNESSLYSNLGSRVGVPSTYDDISQSRGGYRDAYSLPQSATTGTGSLWSRQPFEQFGVAERNGAVGEELRNRSNPINIDNNASSNVDAEAKLLQSFRHCILKLIKLEGSEWLFGQSDGVDEELIDRVAAREKFIYEAEAREINQVGHMGEPLISSVPNCGDGCVWRADLIVSFGVWCIHRVLDLSLMESRPELWGKYTYVLNRLQGVIDPAFSKLRTPMTPCFCLQIPASHQRASPTSANGMLPPAAKPAKGKCTTAVTLLDLIKDVEMAISCRKGRTGTAAGDVAFPKGKENLASVLKRYKRRLSNKPVGMNQDGPGSRKNVTAYGSLG |
